Laboratory results taken from article PMC6451091.
This is one part of the list. Measured with an extract: partners may take part in the binding.

Test system: PU.1 (endogenous, THP-1 nuclear extract) + IRF8 (endogenous, THP-1 nuclear extract)
Assay: nuclear extract protein-binding microarray (nextPBM)
Conditions: 20 mM HEPES pH 7.9, 100 mM NaCl, 1 mM DTT, 0.2 mg/mL BSA, 0.02% Triton X-100, 2% milk, 0.4 mg/mL salmon testes DNA; 1 h; temperature not stated; high values mean tight binding; double strand, one strand shown; sequences stand for … in GCCTAGCAC…GTGCTAGGTCTTGATTCGCTTGACGCTGCTG

Sequence	binding signal [z-score]
GATAAGACGAACTGAAAGCT	0.361
AAAAAAGGGAAATGAAAGTA	26.9
TAAAGGAGGAACTGAAACCT	28.6
GAAAAGAGGAACAGAAACTA	41.7
TCAACATGGAAGTGAAAGTC	7.55
TAAAGGAGGAACTGGAACCA	0.84
AAAAAGCAGAAGTGAAACTT	64.5
